“And” between values parts separate entries of the source, which are not always exact repeats. Identical values can stand only once. In all, about 420,000 compounds went through this assay and about 64,000 (15%) were called active. The shares of active, inactive and inconclusive entries below differ from those in the screen. Calls come from the whole dose curve; as a rule, active = well fitted inhibition curve with a large enough effect; inconclusive = small, poorly fitted or top-dose-only effect; inactive = flat fitted curve, though single readings scatter. Potencies of inconclusive entries are doubtful fits and often do not repeat.
Test: qHTS for Inhibitors of human tyrosyl-DNA phosphodiesterase 1 (TDP1): qHTS in cells in absence of CPT; note: nearly all actives have a fitted effect of over 55% in size
Details: DT40 Tdp1-/- hTDP1 cells, no CPT, ATP luminescence, 48 h; activity change, negative = growth inhibition: at 46.2 µM (top of the series) unless noted
Summary of the method: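 Chicken DT40 Tdp1-/- cells complemented with human TDP1, screened without camptothecin (DMSO vehicle only), 400 cells/well. Compounds pin-transferred, cells incubated at 37 °C for at least 48 hr. Growth read as ATP-dependent luminescence (CellTiter-Glo, 30 min at RT).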
% is set by controls: 0 for no effect and ±100 for the full control effect; potency is the fitted concentration of half-maximal effect; tags give direction and shape of the fitted curve.

SMILES | Potency | activity change, negative = growth inhibition
ClC1=C(Cl)[C@]2(Cl)[C@@H]3[C@H]4C[C@H]([C@@H]5O[C@H]45)[C@@H]3[C@@]1(Cl)C2(Cl)Cl | inconclusive: 33.5 µM [inhibitor, single point] | –
CCN1C[C@@]2(COC)C3[C@@H](OC)[C@H]4[C@@H]1[C@@]3(C1C[C@H]3[C@H](O)C1[C@]4(O)C[C@H]3OC)[C@@H](OC)C[C@H]2O (some centres undefined) | inactive | –
Cc1ccccc1C(=O)Oc1cccc(Nc2ncnc3ccccc23)c1 | active: 13 µM | –
COc1ccc(N=C(C)c2c(O)n(C3CCCCC3)c(=O)[nH]c2=O)c(OC)c1 | – | inconclusive: -35.4% [inhibitor]
C=C(C=O)CC1CC(O)[C@]2(C)OC3CC4OC5C[C@]6(C)O[C@]7(C)CCC8OC9C[C@]%10(C)OC%11C(C)=CC(=O)OC%11CC%10OC9C[C@@H](C)C8OC7CC6O[C@]5(C)CC5OC5C4OC3CC2O1 (some centres undefined) | active: 0.366 µM | –
CCc1ccc(N2C(=O)NC(=O)/C(=C/c3cccn3CCOc3ccc(C)cc3)C2=O)cc1 | inconclusive: 29.1 µM [inhibitor, single point] | –
O=C1NC(=O)C(=Cc2coc3ccccc3c2=O)C(=O)N1 | inconclusive: 20.6 µM [inhibitor, single point] | –
C=C(C)C1Cc2c(ccc3c(=O)c4c(oc23)COc2cc(OC)c(OC)cc2-4)O1 (centres undefined) | inactive | –
COc1ccc(Cc2nccc3cc(OC)c(OC)cc23)cc1OC | active: 8.2 µM [middle of 4 runs] | –
CCOc1ccc(S(=O)(=O)N(CC(=O)NCCc2ccc(OC)c(OC)c2)c2ccccc2)cc1 | inconclusive: 4.61 µM [inhibitor, full curve] | –
COc1cccc(NC(=O)c2cccn(Cc3ccccc3C)c2=O)c1 | active: 25.9 µM | –
CCCc1[nH][nH]c(=O)c1C(c1ccccc1)C(C#N)C#N (centres undefined) | inconclusive: 23.1 µM [inhibitor, partial curve] | –
O=C(NCCSc1c(-c2ccccc2)[nH]c2ccccc12)c1ccc(S(=O)(=O)N2CCOCC2)cc1 | active: 8.2 µM | –
O=c1[nH]c(=O)n(-c2ccc(Br)cc2)c(O)c1C=NCCN1CCCCC1 | inactive | –
Clc1cccc(N2CCNCC2)c1Cl | inconclusive: 25.9 µM [inhibitor, single point] | –
C=Cn1c(P(=S)(N2CCOCC2)N2CCOCC2)cc2c1CCCC2 | inconclusive: 25.9 µM [inhibitor, single point] | –
CN(C)CC1CCCCC1=O (centres undefined) | active: 13 µM | –
c1ccc(-c2nn(-c3ccccc3)[n+](-c3ccccc3)n2)cc1 | active: 0.411 µM | –
COC(=O)c1ccc(N=C(c2ccccc2)c2c(O)n(C)c(=O)n(C)c2=O)cc1 | active: 23.1 µM | –
COc1ccccc1C1SCC(=O)Nc2c1c(C)nn2-c1cccc(C)c1 (centres undefined) | inconclusive: 23.1 µM [inhibitor, single point] | –
O=C(Nc1ccncc1)c1cccn(Cc2ccccc2)c1=O | inconclusive: 20.6 µM [inhibitor, single point] | –
CN(C)CCN=Cc1c(O)n(Cc2ccc3c(c2)OCO3)c(=S)[nH]c1=O | inactive | –
CC1OC(OC2C(O)CC(OC3C(O)CC(OC4CCC5(C)C(CCC6C5CCC5(C)C(C7=CC(=O)OC7)C(O)CC65O)C4)OC3C)OC2C)CC(O)C1O (centres undefined) | active: 0.82 µM | –

SMILES | Potency | activity change, negative = growth inhibition
O=[N+]([O-])c1ccc(N2CC2)c([N+](=O)[O-])c1 | inconclusive: 25.9 µM [inhibitor, single point] | –
COC(=O)C1=C(c2ccc(C(C)=O)cc2)C[C@@H]2CC[C@H]1N2C(=O)N1CCC(O)CC1 | inactive | –
O=C(O)c1c[nH]c2ccc(S(=O)(=O)N(CCCl)CCCl)cc12 | inactive | –
COc1ccc(-c2ccc3n2Cc2cnnn2-c2ccccc2-3)cc1 | inconclusive: 16.4 µM [inhibitor, single point] | –
O=c1[nH]c(=O)n(CCC2=CCCCC2)c(O)c1/C=N/Nc1cccc2ccccc12 | inconclusive: 25.9 µM [inhibitor, partial curve] | –
CCC(=O)Nc1ccccc1-c1nc2ccccc2n(C(CC)C(=O)Nc2cccc(Cl)c2)c1=O (centres undefined) | active: 20.6 µM | –
CCN(CCNc1ccc([N+](=O)[O-])c2cccnc12)S(=O)(=O)c1ccccc1 | inactive | –
CC1CCC2[C@@H](C)C(=O)OC3O[C@]4(C)CCC1C32OO4 (some centres undefined) | active: 7.31 µM | –
CN1/C(=C\C=C2C(=O)NC(=S)NC2=O)C(C)(C)c2ccccc21 | inconclusive: 7.31 µM [inhibitor, partial curve] | –
O=C1c2ccccc2-n2nncc2C2c3cc(Br)ccc3CCN12 (centres undefined) | inactive | –
Fc1ccc(CNCCc2ccccc2)cc1 | inactive | –
O=C(N/N=C/c1c(O)n(CCC2=CCCCC2)c(=S)[nH]c1=O)c1ccccc1 | inconclusive: 20.6 µM [inhibitor, single point] | –
C=CCN(CC(=O)c1sc(C(=O)OCC)nc1C)c1cccc(Br)c1 | inconclusive: 18.4 µM [inhibitor, single point] | –
CCCc1nc2ccc(Br)cc2c(=O)n1-c1ccc([N+](=O)[O-])c(C(F)(F)F)c1 | inconclusive: 20.6 µM [inhibitor, partial curve, poor fit] | –
COc1cccc(-c2nn(CCC#N)cc2C(=O)Nc2ccccc2Cl)c1 | inconclusive: 20.6 µM [inhibitor, single point] | –
N#CC1=C(N)Oc2c(c(=O)oc3ccccc23)C1c1ccc([N+](=O)[O-])o1 (centres undefined) | inconclusive: 29.1 µM [inhibitor, single point] | –
CCOC(=O)C1(C)CCN1C(=O)c1cc(OC)c(OC)c(OC)c1 (centres undefined) | inconclusive: 2.06 µM [inhibitor, single point] | –
C[C@H](CN1CCOCC1)C(C(=O)N1CCCC1)(c1ccccc1)c1ccccc1 | active: 41.8 µM | –
COc1ccc(-c2noc(=O)n2Cc2cc(C)ccc2C)cc1 | active: 23.1 µM | –
O=c1[nH]c(O)c(/C=C2\C=Nc3ccc(OCc4ccccc4)cc32)c(=O)[nH]1 | inconclusive: 14.6 µM [inhibitor, single point] | –
CN=C1CN=C(c2ccc[nH]2)c2cc(Cl)ccc2N1 | active: 0.112 µM | –
O=[N+]([O-])c1ccc(N2CCOCC2)c2ccncc12 | inconclusive: 10.3 µM [inhibitor, partial curve] | –
Cc1ccsc1C(=O)C1CCCN(Cc2cnn(C(C)C)c2)C1 (centres undefined) | inconclusive: 32.6 µM [inhibitor, single point] | –

SMILES | Potency | activity change, negative = growth inhibition
COc1cc(C(=O)OC2C[C@H]3CC[C@@H](C2)N3C)ccc1O (some centres undefined) | inactive | –
CCN1/C(=C\C=C\C2=[N+](CC)c3ccccc3C2(C)C)C(C)(C)c2ccccc21 | active: 0.146 µM | –
O=c1c2ccccc2nc(N2CCCC2)n1-c1ccc(Cl)cc1 | active: 16.4 µM | –
CCOC(=O)c1cccc(C2=C(CNC(C)=O)[C@H]3CC[C@@H](C2)N3Cc2ccccc2)c1 | inconclusive: 29.1 µM [inhibitor, single point] | –
C[C@@H]1NCCc2cc(O)c(O)cc21 | inconclusive: 29.1 µM [inhibitor, single point] | –
O=C1NC(=O)C(CCc2ccncc2)(CCc2ccncc2)C(=O)N1CCc1ccccc1 | inactive | –
CC1CCC(C(C)C)C(OC(=O)Cn2c(COc3ccccc3)[n+](C)c3ccccc32)C1 (centres undefined) | active: 1.03 µM | –
Cc1cc(OC(=O)N(C)C)n(-c2ccccc2)n1 | inactive | –
CN(C)c1ccc(C=C2C=CC=C2)cc1 | inconclusive: 35.5 µM [inhibitor, single point] and inconclusive: 16.4 µM [inhibitor, single point] | –
C[C@@H]1[C@H]2Cc3ccc(O)cc3[C@]1(C)CCN2C | inactive | –
O=C(N/N=C/C1C(=O)NC(=S)N(c2ccccc2)C1=O)c1cc(Br)c(O)c(Br)c1 (centres undefined) | inconclusive: 20.6 µM [inhibitor, single point] | –
c1ccc(-c2ccc(-c3[nH]ncc3CN3CCC(N4CCSCC4)CC3)cc2)cc1 | inconclusive: 29.1 µM [inhibitor, single point] | –
CCc1ccc(C2=NN(CCC(=O)N3CCC4(CC3)OCCO4)C(=O)CC2)cc1 | inactive | –
C[C@]12CC[C@H]3[C@@H](CC[C@@]45O[C@@H]4C(O)=C(C#N)C[C@]35C)[C@@H]1CC[C@@H]2O | inconclusive: 33.5 µM [inhibitor, single point] | –
O=C(N/N=C/c1ccc([N+](=O)[O-])o1)c1cc([N+](=O)[O-])cc([N+](=O)[O-])c1O | inactive | –
CCn1c(=N)n(Cc2ccccc2F)c2ccccc21 | inactive | –
O=C1NC(=O)C(CCc2ccncc2)(CCc2ccncc2)C(=O)N1Cc1ccccc1 | inconclusive: 20.6 µM [inhibitor, partial curve] | –
O=C1NC(=O)N(Cc2ccc(F)cc2)C(=O)/C1=C\c1ccc([N+](=O)[O-])s1 | active: 8.2 µM | –
COc1cc(OC)c(OC)cc1CNCCc1ccc(F)cc1 | active: 11.6 µM | –
N=C1c2ccccc2CN1NC(=O)c1ccc(Cl)cc1 | inconclusive: 5.8 µM [inhibitor, partial curve] | –
Cc1ccc(-c2nn3c(=O)cc(CN4CCN(C(=O)COc5ccc(C)c(C)c5)CC4)nc3s2)cc1 | inconclusive: 6.51 µM [inhibitor, single point] | –
O=C(c1ccc(-c2ccccc2)c(F)c1)C1CCCN(CCO)C1 (centres undefined) | inconclusive: 29.1 µM [inhibitor, single point] | –
CCn1c(O)c(C=Nc2ccc(N3CCOCC3)cc2)c(=O)n(CC)c1=S | inconclusive: 25.9 µM [inhibitor, partial curve] | –

Source: PubChem BioAssay AID686978 (National Center for Advancing Translational Sciences (NCATS), 2013)
